Values joined by “and” are separate entries in the source; they are usually repeats but may differ in a detail not shown here. Equal entries are not always repeated. In all, about 420,000 compounds went through this assay and about 64,000 (15%) were called active. This list was built around the results that the source calls inconclusive (neither active nor inactive); the mix of calls is not that of the screen. The call rests on the fitted dose curve; in most records, active means well fitted inhibition curve with a large enough effect; inconclusive means small, poorly fitted or top-dose-only effect; inactive means flat fitted curve, though single readings scatter. Potencies of inconclusive entries are doubtful fits and often do not repeat.
Test: qHTS for Inhibitors of human tyrosyl-DNA phosphodiesterase 1 (TDP1): qHTS in cells in absence of CPT; further: nearly all actives have a fitted effect of over 55% in size
Settings: DT40 Tdp1-/- hTDP1 cells, no CPT, ATP luminescence, 48 h; activity change, negative = growth inhibition: at 46.2 µM (top of the series) unless noted
Outline: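 Stably hTDP1-transfected Tdp1-null chicken DT40 cells were treated with library compounds minus camptothecin and grown for at least 48 hr at 37 °C, after which cellular ATP was quantified by luminescence.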
On the % scale 0 is the no-effect control and ±100 the full control effect; potency means the concentration at half of the fitted maximal effect; tags describe the fitted curve by direction and shape.

Row | SMILES | Potency | activity change, negative = growth inhibition
1 | Cc1cc(O)c(N)c(C)c1Cl | inconclusive: 18.4 µM [inhibitor, single point] | 
2 | Cc1ccccc1Cn1cnc2c(NS(C)(=O)=O)c(C)c(C)cc21 | inconclusive: 29.1 µM [inhibitor, single point] | 
3 | O=S(c1cc(Cl)cc(Cl)c1O)c1cc(Cl)cc(Cl)c1O | inactive and inconclusive: 20.6 µM [inhibitor, single point] | 
4 | Cc1ccc(NC(=O)C2(C)CCN2C(=O)C2(c3ccc(Cl)cc3)CC2)cc1 (stereo not given) | active: 18.4 µM | 
5 | CC(C)[C@H]1COC(NC2=N[C@@H](C(C)C)CO2)=N1 | inactive | 
6 | CNC(=S)N/N=C/c1ccc(N(C)C)cc1 | inconclusive: 10.3 µM [inhibitor, partial curve] | 
7 | CC(C)NC(=O)N1CCCC2(CCN(C(=O)c3ccncc3)CC2)C1 | inactive | 
8 | Cc1ccc(CN(CC(=O)N/N=C/c2ccccc2[N+](=O)[O-])S(=O)(=O)c2ccc(C)cc2)cc1 | inconclusive: 18.4 µM [inhibitor, single point] | 
9 | Cc1ccc2nc(CCCc3nc4ccc(C)cc4[nH]3)[nH]c2c1 | inconclusive: 13 µM [inhibitor, partial curve] | 
10 | CCCCN(CC)C(=O)CSc1nc2n[nH]c(C)c2c(=N)n1-c1cccc(C)c1 | active: 5.8 µM and active: 20.6 µM | 
11 | O=C(CSc1cccc(C(F)(F)F)c1)Nc1cc(S(=O)(=O)N2CCCC2)ccc1Cl | inactive | 
12 | CSc1cccc(NC(=O)c2nnn(Cc3ccccc3)c2N)c1 | inconclusive: 25.9 µM [inhibitor, single point] | 
13 | CCOc1ccccc1NC(=O)C(CC(C)C)NC(=O)C1CCC(C)CC1 (stereo not given) | inconclusive: 18.4 µM [inhibitor, partial curve] and inconclusive: 25.9 µM [inhibitor, single point] | 
14 | N#Cc1ccccc1OCC(=O)NNC(=O)CCNC(=O)c1ccccc1 | inconclusive: 25.9 µM [inhibitor, single point] | 
15 | CCc1n[nH]c2c1/C(=N\O)CC(C)(C)C2 | inactive | 
16 | Cc1ccc(S(=O)(=O)N2CCC(C(=O)Nc3ccccc3N3CCCCC3)CC2)cc1 | inconclusive: 29.1 µM [inhibitor, single point] | 
17 | CC1=NN(S(=O)(=O)c2ccc(Cl)cc2Cl)C(=O)c2ccccc2O1 | active: 16.4 µM | 
18 | COc1ccc(Cc2nnc(N/N=C/c3ccc(N(C)C)cc3)[nH]c2=O)cc1OC | inactive | 
19 | CCOc1ccc(NC2SC(=O)N(Cc3ccccc3)C2=O)cc1 (stereo not given) | inactive | 
20 | CCCCN(C)Cc1c(C(=O)N2CCc3ccccc3C2)nc2ccc(Cl)cn12 | inconclusive: 25.9 µM [inhibitor, single point] | 
21 | Cc1cnccn1 | inactive | 
22 | Nc1c(C(=O)NCCc2ccccc2)nnn1Cc1ccc(Br)cc1F | inactive | 
23 | CCN1CC2([N+](=O)[O-])C=CC(=O)C([N+](=O)[O-])(C1)C2CC(=O)c1ccccc1 (stereo not given) | inconclusive: 29.1 µM [inhibitor, single point] | 
24 | O=C1C(=O)N(CCO)C(c2ccccc2[N+](=O)[O-])/C1=C(\O)c1ccccc1 (stereo not given) | inactive | 

Row | SMILES | Potency | activity change, negative = growth inhibition
25 | Cn1cnc(S(=O)(=O)N2CCCCC2c2cc(C(=O)Nc3ccc(F)c(Cl)c3)no2)c1 (stereo not given) | inconclusive: 25.9 µM [inhibitor, single point] | 
26 | COc1ccc(/C=C2\NC(=O)C(C=NCc3ccccc3)=C2O)cc1 | inconclusive: 18.4 µM [inhibitor, single point] | 
27 | Cn1c(=N)n(CC(=O)c2ccc(F)cc2)c2ccccc21 | active: 13 µM | 
28 | CC(C)(C)OC(=O)NC1CCN(S(=O)(=O)c2ccc3c(c2)OCCO3)CC1 | inconclusive: 8.2 µM [inhibitor, partial curve, poor fit] | 
29 | C=CCCC1(C)C(=O)N(c2ccccc2)c2ccccc21 (stereo not given) | inconclusive: 23.1 µM [inhibitor, single point] | 
30 | O=C(Nc1cccc(C(F)(F)F)c1)c1cc(-c2ccc(Cl)s2)nc2ccccc12 | inconclusive: 18.4 µM [inhibitor, single point] | 
31 | O=C(Nc1cccs1)Nc1ccc(F)cc1F | active: 14.6 µM | 
32 | O=C(Nc1nnc(SCc2ccc(F)cc2)s1)c1cnccn1 | inconclusive: 18.4 µM [inhibitor, single point] | 
33 | Cc1cccc(CC(=O)Nc2c3c(nn2-c2cccc(Cl)c2)CS(=O)C3)c1 (stereo not given) | inactive | 
34 | Cc1ccc(Cl)cc1N1CCN(C(=O)Cc2cn(C)c3ccccc23)CC1 | inconclusive: 29.1 µM [inhibitor, single point] | 
35 | COc1ccc(Cn2c(CO)cnc2SCC(=O)Nc2ccc3c(c2)OCCO3)cc1 | inconclusive: 29.1 µM [inhibitor, single point] | 
36 | C/C(Cn1nc([N+](=O)[O-])cc1C)=N\NC(=O)c1ccc(O)cc1O | inactive | 
37 | COC(=O)c1cccnc1-n1c(=O)c2cccnc2n(Cc2cccc(C(F)(F)F)c2)c1=O | inconclusive: 29.1 µM [inhibitor, single point] | 
38 | O=C(Nc1nccs1)c1ccc(Br)s1 | inactive | 
39 | CC(C(=O)Nc1ccccc1-c1ccccc1)N1CCCCC1 (stereo not given) | inconclusive: 29.1 µM [inhibitor, single point] | 
40 | CC[C@@H](C)[C@@H]1CN([C@@H](C)CN2CCC[C@H]2CN2C(N)=NC[C@H]2CC(C)C)C(=N)N1CCc1ccc(Cl)c(Cl)c1 | inconclusive: 29.1 µM [inhibitor, single point] | 
41 | COC(=O)c1ccc(NS(=O)(=O)NC(=O)c2cn(C)c3ccccc23)cc1 | inactive | 
42 | COCc1[nH]nc2c1C(c1ccc(OC)cc1)C(C#N)=C(N)O2 (stereo not given) | inactive | 
43 | Cc1ccc(Nc2nc(C)nc3c2oc2ccccc23)cc1 | inconclusive: 18.4 µM [inhibitor, single point] | 
44 | Cc1cc(-c2ccnc(-n3ncc(C(=O)NCC4COCCO4)c3C)n2)c(C)s1 (stereo not given) | active: 4.11 µM | 
45 | COc1ccc2c(c1)C(C)=CC(C)(C)N2C(=O)CSc1nnc(-c2ccc(C)cc2)o1 | inconclusive: 20.6 µM [inhibitor, partial curve] | 
46 | O=C(CCCCn1c(=O)[nH]c2ccccc2c1=O)N1CCN(c2cccc(C(F)(F)F)c2)CC1 | inconclusive: 20.6 µM [inhibitor, single point] | 
47 | Cc1ccc(S(=O)(=O)N2CCC(=O)N([C@H](COCc3cccc(C)c3)C(C)C)CC2)cc1 | inconclusive: 23.1 µM [inhibitor, single point] | 
48 | O=C(Oc1ccccc1)c1ccc2c(c1)C(=O)N(Cc1ccncc1)C2=O | inconclusive: 16.4 µM [inhibitor, partial curve, poor fit] | 

Row | SMILES | Potency | activity change, negative = growth inhibition
49 | CCS(=O)(=O)c1ccc2oc(Nc3ccccc3Cl)nc2c1 | inconclusive: 9.2 µM [inhibitor, partial curve, poor fit] | 
50 | O=C(CCN1CCN(C(=O)c2ccco2)CC1)Nc1ccc(F)cc1 | inactive | 
51 | NNC(=S)NC1CCCCC1 | active: 5.8 µM | 
52 | CCOC(=O)c1c(NC(=O)COC(=O)CCOc2ccccc2C)sc(C(=O)NC)c1C | inconclusive: 23.1 µM [inhibitor, single point] | 
53 | O=C(Nc1cccc(-c2nc3ccccc3[nH]2)c1)c1ccccn1 | active: 13 µM | 
54 | CCn1c(N2CCN(CC(=O)Nc3cccc(C)c3C)CC2)nc2ccccc21 | active: 20.6 µM | 
55 | O=C(Cc1c(F)cccc1Cl)Nc1cc(S(=O)(=O)N2CCCCC2)ccc1N1CCOCC1 | active: 16.4 µM | 
56 | COCCn1ccc2c(OCC(=O)Nc3c(C)cc(C)cc3C)cccc2c1=O |  | inconclusive: -31.3% [inhibitor]
57 | CCCSc1oc(-c2ccco2)nc1S(=O)(=O)c1ccc(Br)cc1 | inconclusive: 18.4 µM [inhibitor, single point] | 
58 | Cc1cc(C(=O)OC(C)C(=O)N2CCc3ccccc32)ccc1[N+](=O)[O-] (stereo not given) | inconclusive: 18.4 µM [inhibitor, partial curve] | 
59 | Cn1c(-n2cccc2)c(-c2c(-c3ccc(F)cc3)[nH]c3c2c(=O)n(C)c(=O)n3C)c(=O)n(C)c1=O | inactive | 
60 | Brc1cccc(CNc2nc3ccccc3n2CCN2CCCCC2)c1 | inconclusive: 16.4 µM [inhibitor, single point] | 
61 | CSc1ccc(CCNC(=O)c2cccc3c2C(=O)N(C2CCCCC2)C3)cc1 | inconclusive: 29.1 µM [inhibitor, single point] | 
62 | CN(C)S(=O)(=O)c1ccc(-c2csc(N/N=C/c3ccco3)n2)cc1 | active: 8.2 µM | 
63 | CC(=O)N1CCc2c(sc3c2c(=O)n(-c2ccc(F)cc2)c(=O)n3Cc2ccc(C#N)cc2)C1 | inconclusive: 0.0184 µM [inhibitor, full curve, poor fit] | 
64 | OCC[C@H]1C[C@H](O)[C@@H](O)[C@@]2(CCCc3ccccc3O2)O1 | inactive | 
65 | CC1=C(C(=O)N(C)C)CC(CC(=O)NC2CCCC2)C(=O)N1CCCN1CCCC1=O (stereo not given) | inactive | 
66 | Cc1ccccc1NC(=O)c1nnn(-c2ccc3c(c2)OCCO3)c1N | inconclusive: 29.1 µM [inhibitor, single point] | 
67 | Cc1ccccc1CCNC(=O)c1cc(C2CC2)nc2c1cnn2C(C)C | inconclusive: 18.4 µM [inhibitor, single point] | 
68 | CCCCn1c(N)c(N(CCC(C)C)C(=O)COC(=O)c2cccnc2Cl)c(=O)[nH]c1=O | inactive | 
69 | CCC(C)Oc1cc(-c2ccnc(Nc3cccc(Cl)c3)n2)ccn1 (stereo not given) | inconclusive: 29.1 µM [inhibitor, single point] | 
70 | CCc1ccc(OCCNC(=O)c2cc(SC)ccc2Cl)cc1 | inconclusive: 25.9 µM [inhibitor, single point] | 

Reference: PubChem BioAssay AID686978 (National Center for Advancing Translational Sciences (NCATS), 2013)
